Experimental data taken from PubChem BioAssay AID1460 (National Center for Advancing Translational Sciences (NCATS), 2008).
Where “and” joins values, the source holds several entries; their conditions need not be identical. Equal entries are not always repeated. Hit rate of the full screen: of about 270,000 compounds, about 5,800 (2.1%) were called active. The shares of active, inactive and inconclusive entries below differ from those in the screen. The call rests on the fitted dose curve; in most records, active means well fitted inhibition curve with a large enough effect; inconclusive means small, poorly fitted or top-dose-only effect; inactive means flat fitted curve, though single readings scatter. A potency beside an inconclusive call is a rough fit, not a confirmed value.
Further: nearly all actives have a fitted effect of over 55% in size.
Potency means the concentration at half of the fitted maximal effect; tags describe the fitted curve by direction and shape.

These compounds were tested against Microtubule-associated protein tau (Homo sapiens) (UniProt P10636) (assay: qHTS for Inhibitors of Tau Fibril Formation, Thioflavin T Binding). Settings: recombinant tau K18 P301L, heparin-induced fibrillization, ThT fluorescence; series mostly up to 57.4 µM.
UniProt P10636, sequence (P10636 whole entry, looked up): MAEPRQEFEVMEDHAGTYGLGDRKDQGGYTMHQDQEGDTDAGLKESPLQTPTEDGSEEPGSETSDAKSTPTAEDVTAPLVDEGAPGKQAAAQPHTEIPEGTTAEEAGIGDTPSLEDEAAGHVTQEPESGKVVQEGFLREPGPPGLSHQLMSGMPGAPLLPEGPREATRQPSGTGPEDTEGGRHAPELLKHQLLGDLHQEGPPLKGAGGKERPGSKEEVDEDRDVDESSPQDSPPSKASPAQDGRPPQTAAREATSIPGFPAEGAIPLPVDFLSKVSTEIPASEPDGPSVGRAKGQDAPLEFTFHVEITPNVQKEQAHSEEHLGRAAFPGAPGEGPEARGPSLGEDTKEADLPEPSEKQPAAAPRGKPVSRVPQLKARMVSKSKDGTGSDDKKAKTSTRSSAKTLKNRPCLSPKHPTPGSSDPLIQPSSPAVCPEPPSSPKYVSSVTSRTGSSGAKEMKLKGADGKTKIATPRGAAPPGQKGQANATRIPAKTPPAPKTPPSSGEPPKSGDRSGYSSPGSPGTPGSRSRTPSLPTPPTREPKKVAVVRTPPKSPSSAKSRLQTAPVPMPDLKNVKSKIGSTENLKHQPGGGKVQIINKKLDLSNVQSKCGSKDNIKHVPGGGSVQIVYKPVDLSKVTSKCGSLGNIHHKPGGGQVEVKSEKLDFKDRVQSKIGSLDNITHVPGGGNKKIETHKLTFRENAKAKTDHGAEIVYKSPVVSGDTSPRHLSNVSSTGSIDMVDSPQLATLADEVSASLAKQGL
In short: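 ThT emission at 510 nm, taken 1 hr after adding 30 uM dye, quantifies aggregates formed when 20 uM heparin acts on human tau K18 P301L for 6 hr at 37 C.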
For `CC(/C=C1\SC(=S)N(NC(=O)c2ccccc2C)C1=O)=C\c1ccccc1`, the Potency was active: 3.98 µM. For `N#CC(C#N)=C(Nc1ccc(F)cc1)SCc1cccc(Br)c1`, the Potency was inconclusive: 14.1 µM [inhibitor, partial curve]. For `O=C(O)c1ccccc1C(=O)NNc1ccc(F)cc1`, the Potency was inconclusive: 28.2 µM [inhibitor, single point]. For `CCOC(=O)/C=C/c1nc(C(=O)OCC)c(C)c(=O)[nH]1`, the Potency was inconclusive: 7.94 µM [inhibitor, partial curve, poor fit]. `Cc1ccc(CSc2nnc(SCC(=O)N/N=C/C=C/c3ccco3)s2)cc1` was tested, and the Potency was inconclusive: 22.4 µM [inhibitor, single point]. `COc1ccc(C2/C(=C(/O)c3ccccc3)C(=O)C(=O)N2CCN2CCOCC2)c(OC)c1` (stereo not given) was tested, and the Potency was inconclusive: 22.4 µM [inhibitor, single point]. For `C/C(CCC(C)C)=N\Nc1cc(C)c2ccccc2n1`, the Potency was inconclusive: 39.8 µM [inhibitor, single point]. `O=C(CSc1ncccc1C(=O)Oc1ccccc1Cl)Nc1ccc(C(F)(F)F)cc1Cl` was tested, and the Potency was “inactive”. For `COC(=O)C1CCN(S(=O)(=O)Cc2ccccc2)CC1`, the Potency was inconclusive: 17.8 µM [inhibitor, partial curve]. For `O=C(O)COc1ccccc1/C=N/Nc1ccc(S(=O)(=O)N2CCOCC2)cc1[N+](=O)[O-]`, the Potency was inconclusive: 10 µM [inhibitor, partial curve]. In the case of `COc1ccc(-n2cc(-c3ccccc3)[nH]c2=S)cc1`, the Potency is reported as “inactive”. `CCOC(=O)c1c(C)[n+]([O-])c2ccc3c(non3O)c12` was tested, and the Potency was inconclusive: 8.91 µM [inhibitor, partial curve]. In the case of `CCN(Cc1ccccc1)S(=O)(=O)c1cc(Br)cc2c1N(C(=O)C1CC1)CC2`, the Potency is reported as inconclusive: 25.1 µM [inhibitor, single point]. For `COc1ccc(-c2noc(CCc3ccccc3)n2)cc1`, the Potency was inconclusive: 17.8 µM [inhibitor, partial curve]. For `O=C(NCc1ccc2[nH]c3c(c2c1)CCCC3)N1CCOCC1`, the Potency was inconclusive: 35.5 µM [inhibitor, single point]. For `COc1ccc(NC(=O)CNC(=O)Cn2c(C)cc3ccccc3c2=O)c(OC)c1`, the Potency was “inactive and inconclusive: 7.94 µM [inhibitor, partial curve]”. For `Cc1cc(C)c(S(=O)(=O)Nc2nnc(C)s2)c(C)c1`, the Potency was “inactive”. In the case of `Cc1cccc(OCC(=O)NCc2cc(C)nc3ccccc23)c1`, the Potency is reported as “inactive”. In the case of `O=C(Nc1nccs1)C1CC2CCC1C2` (stereo not given), the Potency is reported as “inactive”. `O=C(OCC(=O)N1CCCc2ccccc21)C1CCN(S(=O)(=O)c2cccs2)CC1` was tested, and the Potency was “inactive”. For `CSC1=NC(=O)/C(=C\c2cccc3ccccc23)S1`, the Potency was inconclusive: 31.6 µM [inhibitor, single point]. With `O/N=C/c1ccc(OCC(O)COc2ccc(/C=N/O)cc2)cc1` the Potency was inconclusive: 3.98 µM [inhibitor, partial curve]. In the case of `COc1cc2c(cc1NCc1ccc3c(c1)OCO3)oc1ccccc12`, the Potency is reported as inconclusive: 10 µM [inhibitor, partial curve]. In the case of `CCOc1ccc(/C=C(\C#N)C(=O)c2c(C)[nH]c3ccccc23)cc1OC`, the Potency is reported as inconclusive: 28.2 µM [inhibitor, partial curve]. For `COCCSc1nnc(NC(=O)c2ccc([N+](=O)[O-])cc2)s1`, the Potency was inconclusive: 8.91 µM [inhibitor, full curve]. In the case of `COC(=O)/C=C/C(C)=C/C=C/C(C)=C/C=C/C=C(C)/C=C/C=C(C)/C=C/C(=O)O`, the Potency is reported as active: 12.6 µM. With `COc1ccc(NC(=O)Cn2c(=O)oc3cc(S(=O)(=O)N4CCCCCC4)ccc32)cc1OC` the Potency was inconclusive: 35.5 µM [activator, single point]. `Cc1ccc2onc(CC(=O)N3CCN(c4cccc(Cl)c4)CC3)c2c1` was tested, and the Potency was inconclusive: 7.94 µM [inhibitor, partial curve, poor fit]. For `Fc1cccc(Cl)c1Cn1c(-c2cccs2)nc2ccccc21`, the Potency was inconclusive: 44.7 µM [inhibitor, single point]. For `CC1(C)Cc2c(sc(NC(=O)c3ccccc3)c2C(=O)O)CO1`, the Potency was inconclusive: 20 µM [inhibitor, single point]. With `COc1cccc([C@@H]2Oc3ccc(Br)cc3C(=O)[C@H]2OC(=O)NCc2ccc3c(c2)OCO3)c1` the Potency was inconclusive: 12.6 µM [inhibitor, partial curve]. With `Cc1cccc2sc(NNC(=O)c3ccc(S(=O)(=O)N4CCCC(C)C4)cc3)nc12` (stereo not given) the Potency was inconclusive: 20 µM [inhibitor, partial curve]. For `CCOc1ccc(C(=O)Nc2cccc(C)n2)cc1`, the Potency was inconclusive: 0.355 µM [inhibitor, full curve, poor fit]. In the case of `CCOc1ccc(NC(=O)c2ccc3c(c2)CCN3S(=O)(=O)c2ccc(Cl)cc2)cc1`, the Potency is reported as “inactive”. In the case of `Cc1cccc(-n2ncc3c(N4CCC(C)CC4)ncnc32)c1`, the Potency is reported as inconclusive: 15.8 µM [inhibitor, partial curve]. In the case of `COc1ccc(-n2c(C)cc(C(=O)COC(=O)Cn3cnc4ccccc43)c2C)cc1`, the Potency is reported as inconclusive: 28.2 µM [inhibitor, single point]. In the case of `COc1cc(OC)c(NC(=O)C(=O)CC(=O)c2ccc(C)cc2C)cc1Cl`, the Potency is reported as inconclusive: 25.1 µM [inhibitor, partial curve]. For `CC(=O)c1ccc(N2CCN(C(=O)CCCCn3c(=O)[nH]c4ccccc4c3=O)CC2)cc1`, the Potency was inconclusive: 0.251 µM [inhibitor, full curve, poor fit]. `N#C/C(=C/c1cccc(C(F)(F)F)c1)c1nc(CCN2C(=O)c3ccccc3C2=O)cs1` was tested, and the Potency was inconclusive: 28.2 µM [inhibitor, partial curve, poor fit]. `Cc1cc(C)cc(NC(=O)CCCn2c3ccccc3c(=O)c3ccccc32)c1` was tested, and the Potency was inconclusive: 11.2 µM [inhibitor, partial curve, poor fit]. For `O=C(NN1C(=O)/C(=C\c2cccnc2)SC1=S)c1ccco1`, the Potency was inconclusive: 2.82 µM [inhibitor, partial curve]. With `CC(=O)C1=C(C)NC(SCC(=O)Nc2nccs2)=C(C#N)C1c1ccccc1Cl` (stereo not given) the Potency was “inactive”. For `CCOc1cccc2sc(N3CCN(C(=O)C4CC4)CC3)nc12`, the Potency was inconclusive: 15.8 µM [inhibitor, single point]. In the case of `O=C(NC(=S)N1CCCCC1)c1cccnc1`, the Potency is reported as “inactive”. In the case of `CCOc1cccc(NC(=O)CSc2ncc(-c3ccccc3)[nH]2)c1`, the Potency is reported as inconclusive: 14.1 µM [inhibitor, partial curve, poor fit]. For `CC(C)=CCc1c(O)ccc2c1OC(c1ccc(O)c(O)c1)CC2=O` (stereo not given), the Potency was inconclusive: 22.4 µM [inhibitor, single point]. For `Cc1ccc(C)c(N2CCN(C(=O)C3CCCN(Cc4nc(-c5cccc(Cl)c5)oc4C)C3)CC2)c1` (stereo not given), the Potency was inconclusive: 25.1 µM [inhibitor, single point]. `Cn1c(=O)n(C)c2cc(/C=C3/NC(=O)N(Cc4ccccc4)C3=O)ccc21` was tested, and the Potency was “inactive”. For `CC1CCn2c(nc3cc(C(=O)NCc4ccccc4)ccc32)C1` (stereo not given), the Potency was “inactive”. For `Cc1cc(-c2nc(C)c(C(=O)NNS(=O)(=O)c3ccc(Cl)cc3Cl)s2)no1`, the Potency was “inactive”. For `Cc1cc(C)cc(NC(=S)NCCc2c[nH]c3ccccc23)c1`, the Potency was inconclusive: 11.2 µM [inhibitor, partial curve]. `Cc1cnc(CNc2ccnc(-c3ccc(N(C)C)cc3)n2)cn1` was tested, and the Potency was “inactive”. In the case of `CCc1ccccc1NC(=O)CN1C(=O)c2ccccc2Sc2ncccc21`, the Potency is reported as inconclusive: 11.2 µM [inhibitor, partial curve, poor fit]. `CCOC(=O)c1c(C)[nH]c(=S)c(C#N)c1-c1ccc(OC)cc1` was tested, and the Potency was inconclusive: 31.6 µM [inhibitor, partial curve]. With `C/C(=C\C(=O)c1ccccc1)Nc1ccc(Br)c(Cl)c1` the Potency was inconclusive: 11.2 µM [inhibitor, partial curve]. With `Cc1onc(-c2ccccc2Cl)c1C(=O)Nc1ccc(N2CCOCC2)cc1` the Potency was inconclusive: 39.8 µM [inhibitor, single point]. With `Cc1ccc(S(=O)(=O)n2ccc(OC(=O)c3cccs3)n2)cc1` the Potency was inconclusive: 39.8 µM [inhibitor, single point]. `O=C(C1CCCN(S(=O)(=O)c2cccc3nsnc23)C1)N1CC=C(c2ccccc2)CC1` (stereo not given) was tested, and the Potency was inconclusive: 31.6 µM [inhibitor, partial curve, poor fit]. In the case of `C=CCNc1nc(-c2cccc(OC)c2O)nc2ccccc12`, the Potency is reported as inconclusive: 15.8 µM [inhibitor, partial curve]. In the case of `COc1ccc(-c2nnc(-c3ccc(OCC(C)C)cc3)o2)cc1`, the Potency is reported as inconclusive: 3.55 µM [inhibitor, full curve]. In the case of `COc1ccc(OC)c(/C=C2/Sc3ccccc3C2=O)c1`, the Potency is reported as inconclusive: 7.94 µM [inhibitor, partial curve]. For `COc1ccc2[nH]cc(C(=O)CN(C)CCc3ccc(OC)c(OC)c3)c2c1`, the Potency was inconclusive: 31.6 µM [inhibitor, single point]. `O=C(N/N=C/c1ccc(F)cc1)c1cc(-c2ccco2)nc2ccccc12` was tested, and the Potency was inconclusive: 28.2 µM [inhibitor, single point]. With `Cc1ccc2oc(=O)c(/C=C(\O)c3ccccc3)nc2c1` the Potency was inconclusive: 14.1 µM [inhibitor, partial curve]. In the case of `CCOC(=O)c1nnc(-c2ccccc2)nc1Sc1ccccc1Cl`, the Potency is reported as inconclusive: 14.1 µM [inhibitor, partial curve].
